# Assay results reported in PMC4336329 (PLoS ONE, 2015).
# Out of some 310,000 compounds screened, about 14,000 (4.5%) showed an effect of 50% or more. Effects have a minus sign here. Some of the results follow.
# Biological target: human ether-à-go-go-related gene (hERG) potassium channel (human, UniProt Q12809)
# Test: primary screen, population patch clamp on CHO cells stably expressing hERG
# 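Note: peak tail current of the secondary pulse compared with the same well before compound.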
# Sequence of human ether-à-go-go-related gene (hERG) potassium channel (Q12809 whole entry, looked up): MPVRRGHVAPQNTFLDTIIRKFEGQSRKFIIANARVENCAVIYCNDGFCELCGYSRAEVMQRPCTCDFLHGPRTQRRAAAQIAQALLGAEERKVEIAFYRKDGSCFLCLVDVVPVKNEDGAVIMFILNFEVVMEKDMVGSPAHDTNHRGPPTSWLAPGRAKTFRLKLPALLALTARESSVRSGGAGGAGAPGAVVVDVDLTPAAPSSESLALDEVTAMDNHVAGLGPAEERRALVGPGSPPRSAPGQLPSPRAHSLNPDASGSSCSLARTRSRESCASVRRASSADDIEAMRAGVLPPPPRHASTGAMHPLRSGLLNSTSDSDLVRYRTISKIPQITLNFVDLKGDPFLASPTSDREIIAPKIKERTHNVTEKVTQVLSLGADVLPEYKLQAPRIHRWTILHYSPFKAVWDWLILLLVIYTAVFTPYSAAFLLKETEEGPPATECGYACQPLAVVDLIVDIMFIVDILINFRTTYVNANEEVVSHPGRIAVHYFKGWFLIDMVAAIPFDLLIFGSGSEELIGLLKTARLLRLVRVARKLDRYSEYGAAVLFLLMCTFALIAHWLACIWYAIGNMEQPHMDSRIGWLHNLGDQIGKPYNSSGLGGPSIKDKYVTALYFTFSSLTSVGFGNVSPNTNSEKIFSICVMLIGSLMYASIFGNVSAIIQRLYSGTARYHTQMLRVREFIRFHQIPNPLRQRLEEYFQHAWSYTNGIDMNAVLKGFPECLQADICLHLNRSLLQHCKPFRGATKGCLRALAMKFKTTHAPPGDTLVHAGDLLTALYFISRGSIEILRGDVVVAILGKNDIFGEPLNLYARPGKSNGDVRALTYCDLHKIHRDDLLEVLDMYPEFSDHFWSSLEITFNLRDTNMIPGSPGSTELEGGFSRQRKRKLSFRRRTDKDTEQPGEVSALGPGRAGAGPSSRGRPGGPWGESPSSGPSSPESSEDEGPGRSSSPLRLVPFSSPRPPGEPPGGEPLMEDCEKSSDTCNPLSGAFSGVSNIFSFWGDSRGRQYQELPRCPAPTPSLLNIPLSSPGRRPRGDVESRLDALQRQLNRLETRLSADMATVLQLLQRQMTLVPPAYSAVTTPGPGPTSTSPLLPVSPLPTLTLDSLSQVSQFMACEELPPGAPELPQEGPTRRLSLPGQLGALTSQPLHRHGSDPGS
row,SMILES,"hERG current change (%, negative = inhibition) at 10uM [%]"
1,CC(C)Oc1cccc(-c2cc(C(=O)NN3CCOCC3)c3ccccc3n2)c1,-60.8
2,CC(=O)NCC(=O)OCC(=O)c1ccc(Cl)cc1,18
3,COc1ccc(C(=S)N2CCNCC2)cc1,3.52
4,Cc1cc2nc(-c3ccc(SCc4ccccn4)nc3)[nH]c2cc1C,2.32
5,Cc1ccc(C(=O)ONc2ccc(N=O)cc2)cc1,9.94
6,Cl.O=C(CCN1CCOCC1)NCc1ccccc1,14.6
7,Cc1ccc2c(c1)-c1ccccc1S(=O)(=O)N2,-1.12
8,CCN(CC(=O)Nc1c(F)cccc1F)C(=O)CN1C(=O)C2CCCCC2C1=O (stereo not shown),8.49
9,CCCn1c(=O)c2[nH]c(-c3ccc(OCC(=O)Nc4ccc(C#N)cc4)cc3)nc2n(CCC)c1=O,16.5
10,c1ccc(-c2ncnc3cc4n(c23)CCC4)cc1,11.3
11,O=C(NCCc1ccc(Cl)cc1)c1ccc(Br)s1,3.22
12,COc1ccc(N(CC(=O)Nc2ccccc2F)S(=O)(=O)c2ccc(C)c([N+](=O)[O-])c2)cc1,7.94
13,O=C1CCCN1CCCN1CC(C(=O)N(CCO)Cc2ccccc2)CCC1=O (stereo not shown),13.9
14,CC(=O)c1cccc(NC(=O)C2CC(=O)N(c3cccc(C)c3C)C2)c1 (stereo not shown),-9.35
15,COC(=O)c1c(NC(=O)c2ccccc2[N+](=O)[O-])sc2c1CC(C)(C)NC2(C)C,-6.93
16,CCOC(=O)c1ccc(N=C2NC(=O)CS2)cc1,-1.47
17,CCC(=O)NCCc1nc(-c2ccccc2)no1,4.98
18,O=C(Cc1ccc(-n2c(=O)c3ccccc3n(Cc3ccccc3Cl)c2=O)cc1)NCC1CCCO1 (stereo not shown),-1.93
19,COc1ccc(F)cc1C(=O)C1CCCN(Cc2cccn2-c2cccnc2)C1 (stereo not shown),-47
20,NC(=O)c1ccc(SCC(=O)OCC(=O)NCC2CCCCC2)c([N+](=O)[O-])c1,-5.21
21,CCCCC(=O)Nc1cc2nn(-c3ccc(OC)cc3)nc2cc1C,14.9
22,CCOc1ccc(N=Nc2c(N)[nH][nH]c2=O)cc1,0.38
23,CCN(CC)S(=O)(=O)c1ccc2[nH]cc(C(=O)NCCC3=CCCCC3)c(=O)c2c1,4.34

row,SMILES,"hERG current change (%, negative = inhibition) at 10uM [%]"
1,Cc1ccc(Cc2cnc(N3C(=N)SC(C)C3=O)s2)cc1 (stereo not shown),16
2,CCCCCn1c(=O)c(C(=O)NCc2ccncc2)c(O)c2ccccc21,-53.7
3,Cc1onc(-c2c(F)cccc2Cl)c1C(=O)NCC1COc2ccccc2O1 (stereo not shown),-8.14
4,Nc1nc2c(s1)CCCCCCCCCC2,8.74
5,Cc1cc(C)c(C(=O)N2CCC(N3CCC(C(=O)NC(C)C)CC3)CC2)o1,0.334
6,COC(=O)CSc1nnc(-c2ccc(OC)cc2OC)o1,-11.8
7,CCCCOC(=O)Nc1sc2c(c1C(=O)OC)CCC2,-17.3
8,C#CCN(C)CC/C=C1\c2ccccc2CSc2ccccc21.Cl,-8.71
9,Cc1cc(N)n(-c2nc3ccccc3s2)n1,9.54
10,CC1CCCC(C)N1CCNC(=O)Cn1nc(-c2ccccc2)ccc1=O (stereo not shown),-18.9
11,CCOc1ccc(NC(=O)CSc2nnc(Cc3cccn3C)n2-c2ccc(OC)cc2)cc1,-8.98
12,CSc1ccccc1NC(=O)CO/N=C(\C)c1cc2ccccc2o1,13.6
13,COc1ccc(C(=O)C2CCCN(C(=O)CSC)C2)cc1OC (stereo not shown),8.85
14,O=S(=O)(c1ccc(N2CCCC2)cc1)C(F)(F)F,10.7
15,CCOC(=O)C1=C(COC(=O)C(CC)c2ccccc2)NC(=O)NC1C (stereo not shown),-2.24
16,COc1cc(SC)ccc1C(=O)OCC(=O)NCCC1=CCCCC1,-6.93
17,COc1ccccc1-c1nnc(NC(=O)c2ccccc2F)o1,4.29
18,CCCc1cc(SCC(=O)Nc2c(C)n(C)n(-c3ccccc3)c2=O)n2c(nc3ccccc32)c1C#N,10.5
19,O=C(OCC(=O)c1c[nH]c2ccccc12)C1=COCCO1,12.8
20,Cc1c(C(=O)NCC2CCCO2)oc2ccc3c(c12)C(=O)CC(C)(C)O3 (stereo not shown),2.71
21,FC(F)(F)c1nc2nncn2c2c1CCCCC2,-7.44
22,Cc1cccc(N2CC3=C(C2=O)C(c2ccccc2)NC(=O)N3C)c1 (stereo not shown),-14.6
23,COC(=O)CCC(=O)Nc1nccs1,5.89

row,SMILES,"hERG current change (%, negative = inhibition) at 10uM [%]"
1,O=C(CCc1nc(-c2ccccc2F)no1)Nc1cccnc1,3.85
2,CCc1ccccc1NC(=O)c1cc(-c2cccs2)on1,12.3
3,CN(C(=O)CN1C(=O)NC(c2ccccc2)(c2ccccc2)C1=O)C1CCS(=O)(=O)C1 (stereo not shown),0.0325
4,CCSc1nnc([C@H](Cc2c[nH]c3ccccc23)NC(=O)OC(C)(C)C)o1,-21.5
5,Cc1cccc(C(=O)Nc2sc(C)c(-c3ccccc3)c2C#N)c1,10.9
6,COc1c(OC(C)=O)ccc(/C=C/c2ccc3cccc(OC)c3n2)c1[N+](=O)[O-],6.77
7,Cc1cccc(C)c1NC(=O)c1nc(S(=O)(=O)Cc2ccccc2)ncc1Cl,-1.03
8,COc1cc(SC)ccc1C(=O)Nc1nccs1,-17.3
9,Cc1ccc(C)c(NC(=O)CCN2CCN(C)CC2)c1,11.1
10,Cc1nn(CC(=O)OCCOc2ccc(Br)cc2)c(C)c1[N+](=O)[O-],-14.5
11,c1ccc(Cc2nc3ccccc3[nH]2)cc1,-6.39
12,O=c1[nH]nc(-c2cccs2)c2ccccc12,6.15
13,CCCCOc1ccc(/C=C/C(=O)OCC(=O)NC2CCS(=O)(=O)C2)cc1OCC (stereo not shown),-8.83
14,CN(C)S(=O)(=O)c1cccc(C(=O)OCC(=O)NCc2ccccc2)c1,-21.4
15,COc1ccc(S(=O)(=O)N2CCOCC2)cc1NC(=O)c1cccc(-n2cccc2)c1,-41.4
16,CN(Cc1cn(C)nc1-c1cccc(Cl)c1)Cc1nccn1C,-19.5
17,CN(C(=O)c1ccc(OC2CCN(CCc3ccccc3)CC2)cc1)C1CCOC1 (stereo not shown),-25.3
18,CC1CCC/C(=N\NC(=S)NCc2ccccc2)C1 (stereo not shown),-14.4
19,COc1ccc(S(=O)(=O)Cc2ccc(C(=O)N3CCN(C(=O)c4ccco4)CC3)o2)cc1,-26.5
20,Cc1ccc(NC(=S)N(CCCN2CCOCC2)Cc2ccco2)cc1C,-31.9
21,CCc1ccc(CNC(=O)CCCn2nc(C)n3ccnc3c2=O)cc1,-11.3
22,O=c1c2ccccc2nc(SCc2nnc(-c3ccccc3)o2)n1-c1ccccc1,-7.61
23,CCOC(=O)CCc1nc2ccccc2[nH]1,12.2

row,SMILES,"hERG current change (%, negative = inhibition) at 10uM [%]"
1,Cl.NCCCCC(=O)O,6.26
2,C=CCN1C(=O)c2ccc(C(=O)N3CCC(C(N)=O)CC3)cc2C1=O,16.8
3,Cc1ccc2oc(=O)c3cnn(CC(=O)N(Cc4ccco4)C4CCCCC4)c3c2c1,-9.94
4,CCOC(=O)c1ccccc1NC(=O)COC(=O)CSC(C)C(=O)Nc1cc(C)on1 (stereo not shown),14.8
5,Cn1nccc1C(=O)N/N=C/c1ccccc1[N+](=O)[O-],11.6
6,O=C(c1cc(COc2ccc3ncccc3c2)on1)N1CCCC(O)C1 (stereo not shown),14.4
7,Cn1nnnc1SCc1cn2cccnc2n1,4.29
8,COC(=O)c1cc(=O)cc(C(=O)OC)o1,3.43
9,O=C1NC(=O)/C(=C\c2ccc(Oc3ccc([N+](=O)[O-])cn3)cc2)S1,18.2
10,Cc1ccc(S(=O)(=O)N2CCN(c3nc(C(C)C)c4c(c3C#N)CC(C)(C)OC4)CC2)cc1,21.1
11,CC12CCC(=O)N1C(C(=O)OCC(=O)Nc1cc(S(=O)(=O)N3CCCCC3)ccc1Cl)CS2 (stereo not shown),-48.2
12,CC(=O)Nc1ccc(S(=O)(=O)N2CCC(c3nc4ccc(C)cc4[nH]3)CC2)cc1,-34.5
13,CCn1c(C)cc(O)cc1=O,8.88
14,Cc1cc(C(=O)CSc2nnnn2C)c(C)n1-c1cccc(F)c1,-23.8
15,NC(=O)c1ccc(NC(=O)c2cc(S(=O)(=O)N3CCCCC3)ccc2N2CCOCC2)cc1,-13.9
16,Cc1cc(C)c(CN2CCC(n3nccc3NC(=O)CCOc3ccccc3)CC2)cc1C,-26.1
17,Clc1cccc(CN2CCCCCC2)c1,12.3
18,CCCCNC(=O)c1onc(CS(=O)(=O)c2ccccn2)c1C(=O)NCCCC,-27.6
19,Cc1ccc(S(=O)(=O)N2CCN(C(=O)c3ccc(COc4ccccc4)o3)CC2)cc1,-0.773
20,CCSC1=NCCN1C(=O)C(C)(C)Oc1ccc(Cl)cc1,4.55
21,O=C(NNC(=O)C1[C@H]2CCCC[C@@H]12)NC1CCCCC1 (stereo partly shown),3.77
22,Cc1cccc(CN2CCCN(Cc3ccc(Cl)cc3)S2(=O)=O)c1,14
